About 65 (0.1%) of roughly 45,000 compounds were called active. The call rests on the fitted dose curve; in most records, active means well fitted activation curve with a large enough effect; inconclusive means small, poorly fitted or top-dose-only effect; inactive means no such curve, though single readings can be large or run the other way. This is one part of the list.
Target: Galactocerebrosidase (Homo sapiens) (UniProt P54803)
Assay: A Novel Cell-Based Assay to Identify Small Molecules for B -Galactocerebrosidase; further: nearly all actives have a fitted effect of over 65% in size; on activation: 0% is about no effect
Details: 145M-Twi-hGALC-G270D cells (Twitcher mouse brain line with human GALC G270D), HMU-beta-Gal fluorescence, 48 h; series mostly up to 57.5 µM; activation: at the top concentration
Method in brief: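 Brain-derived Twitcher mouse 145M-Twi cells stably expressing human GALC-G270D or wild-type GALC, treated live, then residual GALC activity read by fluorescence of HMU-b-Gal substrate (0.1 mM final) in citrate-phosphate buffer pH 5.2 with sodium taurocholate. Signal increase indicates enhancement.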
Potency means the concentration at half of the fitted maximal effect.

Sequence of UniProt P54803 (P54803 whole entry, looked up): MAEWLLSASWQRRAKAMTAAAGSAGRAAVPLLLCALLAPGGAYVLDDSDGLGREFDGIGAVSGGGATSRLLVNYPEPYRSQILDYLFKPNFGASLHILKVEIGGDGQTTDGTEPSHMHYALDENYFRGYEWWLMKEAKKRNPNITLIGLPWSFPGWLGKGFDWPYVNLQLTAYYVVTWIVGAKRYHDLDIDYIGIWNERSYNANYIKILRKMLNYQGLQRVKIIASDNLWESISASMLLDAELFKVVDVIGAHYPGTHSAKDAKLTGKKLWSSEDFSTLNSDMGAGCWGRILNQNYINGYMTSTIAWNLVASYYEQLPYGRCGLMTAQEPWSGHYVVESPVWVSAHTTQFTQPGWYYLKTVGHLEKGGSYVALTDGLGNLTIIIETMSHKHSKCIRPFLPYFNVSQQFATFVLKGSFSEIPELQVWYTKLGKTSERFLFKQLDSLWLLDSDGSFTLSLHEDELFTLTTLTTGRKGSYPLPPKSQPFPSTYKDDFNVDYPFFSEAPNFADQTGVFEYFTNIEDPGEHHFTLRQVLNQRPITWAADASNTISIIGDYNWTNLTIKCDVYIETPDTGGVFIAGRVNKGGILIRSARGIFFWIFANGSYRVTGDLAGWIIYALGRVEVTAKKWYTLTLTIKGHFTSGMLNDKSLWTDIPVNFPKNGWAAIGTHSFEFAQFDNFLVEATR

| Structure (SMILES) | activation | Potency |
| --- | --- | --- |
| CCc1ccc(C2N=C(N)Nc3nc4ccccc4n32)cc1 (stereo not given) | inactive: -4.8% |  |
| COC(=O)c1cccc(Nc2c(-c3ccc(SC)cc3)nc3nc[nH]n23)c1 | inactive: -17% |  |
| COc1ccc(CCNC(=O)Cn2c(=O)c3sccc3n(CC(=O)Nc3cccc(C(F)(F)F)c3)c2=O)cc1OC | inactive: -4.98% |  |
| O=C(NCc1cccc(Cl)c1)c1cnc(N2CCCCC2)c2ccccc12 | inactive: 2.15% |  |
| Cc1ccc(-c2ncc(Cl)cc2-c2ccc(S(C)(=O)=O)cc2)cn1 | inactive: -17.7% |  |
| Cc1cccc(S(=O)(=O)c2cn(Cc3ccc(F)cc3)c3cc(N4CCCCC4)c(F)cc3c2=O)c1 | inactive: -3.07% |  |
| O=C(CCCCCn1c(=O)[nH]c2ccccc2c1=O)NCCc1ccccc1 | inactive: -14.1% |  |
| COc1ccc(Cl)cc1NC(=O)CN(c1cccc(C)c1C)S(C)(=O)=O | inactive: -7.81% |  |
| CCc1ccc(CNC(=O)CN2C(=O)CSc3ccc(S(=O)(=O)N4CCOCC4)cc32)cc1 | inactive: -12.7% |  |
| COc1cccc(C(=O)N(Cc2ccc(N(C)C)cc2)Cc2ccco2)c1 | inactive: -15.1% |  |
| O=C(CSc1nc2c([nH]c3ccccc32)c(=O)n1-c1ccc(Cl)cc1)NCc1ccccc1 | inactive: -12.8% |  |
| CC(C)CCCC(C)NCCC(C)C (stereo not given) | inactive: 5.48% |  |
| COc1ccc(CCNC(=O)CSc2cc(=O)n(C)c3ccccc23)cc1OC | inactive: -18.4% |  |
| Cc1ccc2sc(N(CCCN(C)C)C(=O)c3ccco3)nc2c1C | inactive: -15.4% |  |
| COc1cc(C(=O)Nc2sc3c(c2C(N)=O)CCC(C)C3)cc(OC)c1OC (stereo not given) | inactive: -8.06% |  |
| CCn1c(=O)c(=O)n(CC)c2cc(N3CCCCC3)c(NC(=O)c3ccc(OC)c(OC)c3)cc21 | inactive: -11.6% |  |
| CCc1ccc(S(=O)(=O)NCc2cccn2Cc2cccc(C)c2)cc1 | inactive: -10.2% |  |
| CC1=C(C(=O)Nc2cc(Cl)ccc2C)C(c2ccccc2F)n2ncnc2N1 (stereo not given) | inactive: -5.05% |  |
| CN1CCN(C(CNC(=O)C(=O)Nc2ccccc2C#N)c2ccc3c(c2)OCO3)CC1 (stereo not given) | inactive: -7.56% |  |
| CCCN(CCC)CCNC(=O)CS(=O)Cc1nc(-c2ccc(OC)c(OC)c2)oc1C (stereo not given) | inactive: -13.6% |  |
| Cc1ccc(-n2nc(C(=O)N3CCCCC3)c(=O)n(C)c2=O)cc1 | inactive: -16.5% |  |
| COc1ccc(NC(=O)Cn2nnnc2-c2ccccc2F)c(C)c1 | inactive: -2.42% |  |
| CCCNC(=O)C1CCC(Cn2c(=O)c3sccc3n(CC(=O)N(CC)CC)c2=O)CC1 (stereo not given) | inactive: -27.5% |  |
| COC(=O)c1ccc(NC(=O)CC2C(=O)N(c3cccc(F)c3)C(=O)N2CC(C)C)cc1 (stereo not given) | inactive: -16.5% |  |
| NCC(=O)O | inactive: 11.2% [at 23.8 µM] |  |

| Structure (SMILES) | activation | Potency |
| --- | --- | --- |
| COc1cccc(C(=O)Nc2nc3c(s2)CCCC3)c1 | inactive: -11% |  |
| CN(Cc1ccccc1)C(=O)C(=O)Nc1ccc2nc3n(c(=O)c2c1)CCCCC3 | inactive: 3.77% |  |
| CNc1ccc(-c2nc(-c3ccccn3)no2)cc1[N+](=O)[O-] | inactive: -3.39% |  |
| COc1ccc(-n2c(=O)c3ccc(C(=O)NCc4ccc(C)cc4)cc3n(CC(=O)Nc3cccc(F)c3)c2=O)cc1 | inactive: -29.3% |  |
| Cc1ccc(CNC(=O)c2cc3cc(C)ccc3n2C)cc1 | inactive: -10.5% |  |
| COc1ccc(CN2C(=O)N(c3cccc(C)c3)C(=O)C2CC(=O)Nc2ccc(F)cc2)cc1OC (stereo not given) | inactive: -12.3% |  |
| CCOC(=O)c1cc(NC(=O)c2ccc(C)cc2)c(=O)n2c1oc1ccccc12 | inactive: -1.76% |  |
| CCOc1cc(CNCCSc2nnnn2C)ccc1OCc1ccc(Cl)cc1Cl | inactive: -8.99% |  |
| Cc1ccc(NC(=O)CN2C(=O)COc3ccc(S(=O)(=O)N4CCCCC4)cc32)cc1Cl | inactive: -9.95% |  |
| COCCCNC(=O)Cn1c(=O)n(-c2ccccc2)c(=O)c2c1c1cc(OC)ccc1n2C | inactive: -13.4% |  |
| CCOc1ccc(C2c3[nH]c4ccccc4c3CCN2C(=O)CSc2ccccc2)cc1 (stereo not given) | inactive: 13.2% |  |
| CC1C(=O)Nc2ccc(S(=O)(=O)Nc3ccccc3Br)cc2NC1=O (stereo not given) | inactive: -8.28% |  |
| COc1cc(Cl)ccc1OC(=O)c1cn(-c2ccccc2OC)c(=O)c2ccccc12 | inactive: -7.66% |  |
| CC(C)CCNC(=O)c1ccc(Cn2c(SCC(=O)NC(C)C)nc3ccccc3c2=O)cc1 | inactive: -22.3% |  |
| Fc1cccc(Cl)c1CNc1n[nH]c(-c2ccco2)n1 | inactive: -6.13% |  |
| Cc1ccc(Cl)cc1N1CCN(C(=O)c2cccn2-c2nnc(N3CCCCC3)s2)CC1 | inactive: -8.01% |  |
| Cc1ccc(C)c(S(=O)(=O)c2nnn3c2nc(NCc2cccs2)c2sccc23)c1 | inactive: -10.9% |  |
| COc1ccc(NC(=O)Cc2csc(COc3cccc(C)c3)n2)cc1OC | inactive: -15.2% |  |
| CCc1ccc(-n2c(SCC(=O)NC(C)CC)nc3n[nH]c(C)c3c2=N)cc1 (stereo not given) | inactive: -10.2% |  |
| COc1ccc(N2CC(NC(=O)c3ccc4c(c3)OCO4)CC2=O)cc1OC (stereo not given) | inactive: -17.3% |  |
| COc1ccc2c(c1)c1c(c(=O)n(-c3ccccc3)c(=O)n1CC(=O)Nc1ccc(F)cc1)n2C | inactive: -9.88% |  |
| Cc1cc(NC(=O)c2ccc(-c3ccc(Br)cc3)o2)cc(-c2nc3ncccc3o2)c1O | inactive: -0.788% |  |
| Cc1c(-c2ccccc2)c(=O)oc2c(CN3CCN(C)CC3)c(O)ccc12 |  | active: 4.47 µM |
| Cc1ccc2nc(Cl)c3cc(C(=O)NCCCN4CCC(C)CC4)sc3c2c1 | inactive: -5.96% |  |
| CC(C)(C)C(=O)NCCCC(=O)O | inactive: -12.6% |  |

| Structure (SMILES) | activation | Potency |
| --- | --- | --- |
| COc1ccc(Cl)cc1C(=O)Nc1ccc2oc(-c3ccc(C(C)(C)C)cc3)nc2c1 | inactive: -8.09% |  |
| Cc1ccc(-c2nc(S(=O)(=O)c3ccc(Cl)cc3)c(N3CCCCC3)o2)cc1 | inactive: -6.25% |  |
| COc1ccc(CNC(=O)Cn2nnc(-c3ccccc3F)n2)cc1 | inactive: -25.5% |  |
| CCCn1ccc2c(OCC(=O)NCc3ccc(F)cc3)cccc2c1=O | inactive: -17.5% |  |
| CCc1cc2c(cc3c(=O)n(CC(=O)N4CCCCC4)nc(CC)n32)s1 | inactive: -1.56% |  |
| CC(C)c1nnc(NC(=O)c2nc(SCc3ccc(F)cc3)ncc2Cl)s1 | inactive: -15.4% |  |
| NC12CC3CC(CC(C3)C1)C2 | inactive: -15.1% |  |
| Cc1cc2n(n1)CCCN2C(=O)Nc1ccc(Cl)cc1 | inactive: -16.3% |  |
| CCCSc1ncc(Cl)c(C(=O)Nc2sc3c(c2C(=O)NCC)CCCC3)n1 | inactive: -5.57% |  |
| CCCSC1=NC2(CCN(C(=O)NC3CCCCC3)CC2)N=C1c1ccccc1 | inactive: -9.03% |  |
| COc1cccc(NC(=O)CN(Cc2ccccc2)S(=O)(=O)c2ccc3nc(C)sc3c2)c1 | inactive: -4.69% |  |
| CSc1ncc(Cl)c(C(=O)Nc2nc3ccc(F)cc3s2)n1 | inactive: -16.5% |  |
| CCOC(=O)c1c(S(=O)(=O)NCC(=O)Nc2ccc(Cl)c(C(F)(F)F)c2)c(C)n(C)c1C | inactive: 3.72% |  |
| CCCCc1nn2c(=O)cc(COC(=O)c3cccc(NC(=O)c4cccc(C)c4)c3)nc2s1 | inactive: -0.859% |  |
| CCN1CCN(C(=O)c2ccc3c(c2)N(Cc2ccccc2)C(=O)c2ccccc2S3=O)CC1 (stereo not given) | inactive: 6.59% |  |
| CCOc1ccc(CNCc2c(C(=O)O)c(C)n(Cc3ccc(F)cc3Cl)c2C)cc1 | inactive: -10.5% |  |
| Cc1nn(CCCC(=O)NCc2cccc(F)c2)c(=O)c2nn(-c3ccccc3)c(C)c12 | inactive: -11.9% |  |
| COc1ccc(OC)c(-c2nc(C(N)=O)c3c(n2)n(-c2ccc4c(c2)OCO4)c(=O)n3C)c1 | inactive: 3.35% |  |
| COc1ccccc1-c1noc(-c2ccc(N(C)Cc3ccccc3)c([N+](=O)[O-])c2)n1 | inactive: -5.78% |  |
| Cc1ccc(NC(=O)Cn2nc(-c3ccc(F)cc3)c3cnc4ccc(C)cc4c32)cc1 | inactive: -13.9% |  |
| CCCN1CCN(c2ncc3c(n2)CCN(Cc2ccc(OC)c(OC)c2OC)C3)CC1 | inactive: -10.3% |  |
| CCCCN(CC)C(=O)CCn1c(=O)c2cccn2c2cccnc21 | inactive: -4.69% |  |
| COc1ccccc1C(=O)c1c(N)c(-c2nc(-c3ccccc3)cs2)c2ccccn12 | inactive: -6.16% |  |
| Cc1ccc(NC(=O)CN(C)S(=O)(=O)c2ccc3c(c2)CCC(=O)N3)c(C)c1 | inactive: -20% |  |
| Cc1ccc(CN2CCCn3nc(C(=O)NCc4ccccc4Cl)cc3C2=O)cc1 | inactive: -32.8% |  |

| Structure (SMILES) | activation | Potency |
| --- | --- | --- |
| COc1cc(NS(=O)(=O)c2ccc(N)cc2)nc(C)n1 | inactive: -16% |  |
| CC(=O)c1cccc(N(C(=O)Cn2nnc3ccccc32)C(C(=O)NCc2ccccc2)c2ccc(F)cc2)c1 (stereo not given) | inactive: -16.2% |  |
| CCCCNC(=O)CN1C(=O)CSc2ccc(S(=O)(=O)N3CCC(C)CC3)cc21 | inactive: -1.35% |  |
| CCOC(=O)c1ccc(NC(=O)C2Cc3ccccc3C(=O)O2)cc1 (stereo not given) | inactive: -5.53% |  |
| Clc1cccc(N2CCN(c3ncnc4c3nc3n4CCCC3)CC2)c1 | inactive: 1.81% |  |
| Cc1cc(=O)n(-c2ccccc2)n1C | inactive: -7.31% |  |
| Cc1cccc(-c2noc(CNC(=O)c3ccco3)n2)c1 | inactive: -4.97% |  |
| Brc1ccc(CNCCCSc2nnnn2-c2ccccc2)cc1 | inactive: -8.89% |  |
| COc1ccccc1-c1nn2c(=O)cc(CN3CCN(S(=O)(=O)c4ccc(C)cc4)CC3)nc2s1 | inactive: 4.17% |  |
| Cc1ccc(-n2nnnc2CNC(=O)c2ccc(F)cc2)cc1C | inactive: -10.9% |  |
| COc1cccc2cc(-c3cn4c(n3)sc3cc(F)ccc34)c(=O)oc12 | inactive: -17.2% |  |
| CC(=O)N(Cc1cccnc1)c1nc2ccc(F)cc2s1 | inactive: -10% |  |
| COc1ccc(C(=O)NCC(c2cccs2)S(=O)(=O)c2ccc(F)c(C)c2)cc1 (stereo not given) | inactive: -6.84% |  |
| CC(=O)Nc1ccc(C)cc1-c1nc2ccccc2n(CC(=O)c2ccc(Cl)cc2)c1=O | inactive: -3.83% |  |
| Cc1c(Cl)cccc1NC(=O)Cn1nc(C(F)(F)F)c2c1CCC2 | inactive: 1.39% |  |
| COc1ccc(OC)c(CNC(=O)c2ccccc2NC(=O)c2nsc3ccccc23)c1 | inactive: -11.3% |  |
| Cc1ccc(N2CCn3c2nc2c3c(=O)n(CCCc3ccccc3)c(=O)n2C)cc1 | inactive: -2.04% |  |
| Cc1cc(C)c(NC(=O)Cn2c(=O)n(CCc3ccccc3)c(=O)c3ccccc32)c(C)c1 | inactive: -7.42% |  |
| CCOc1ccccc1C(=O)N1CCN(CCc2ccccn2)CC1 | inactive: -5.48% |  |
| Cc1ccc(C2=Nc3ccccc3N(CC(=O)Nc3ccccc3C)C(=O)C2)cc1C | inactive: -30.6% |  |
| Cc1ccc(CNC(=O)NC2COc3ccccc3C2)cc1 (stereo not given) | inactive: -14.9% |  |
| Cc1onc(-c2ccccc2Cl)c1C(=O)Oc1ccc(Br)cc1 | inactive: -5.62% |  |
| Cn1cc(S(=O)(=O)N2CCCCCC2)cc1C(=O)NCc1ccc(Cl)cc1 | inactive: 3.27% |  |
| CC1=C(C(=O)Nc2ccccc2)C(c2cccc(O)c2)n2nc(-c3ccccc3Cl)nc2N1 (stereo not given) | inactive: -8.97% |  |
| CCN1CCOC(=O)C1CC(=O)Nc1cccc(OC)c1 (stereo not given) | inactive: -22.2% |  |
